This is one part of the list. Rule as the data show it: active = 3.2 or more and inactive = the rest. The signal is at background level for most entries.
How the values were obtained:
Assay in all cases: enrichment score (SH2-bound / input frequency) (ratio); bacterial display of known human phosphotyrosine sites (pTyr-Var adds point mutants) read by sequencing; higher = stronger binding; tyrosines were phosphorylated by kinases first
Conditions in all cases: peptide library: pTyr-Var
SHP2 C-SH2 domain E139D = target: SHP2 C-SH2 domain E139D
[1] = target: SHP2 C-SH2 domain wild-type
SHP2 N-SH2 domain L43F = target: SHP2 N-SH2 domain L43F
SHP2 N-SH2 domain T42A = target: SHP2 N-SH2 domain T42A
SHP2 N-SH2 domain T52S = target: SHP2 N-SH2 domain T52S
[2] = target: SHP2 N-SH2 domain wild-type

Measured: enrichment score
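Also: displayed peptides selected on beads carrying the immobilized SH2 domain, with library peptides lacking any tyrosine serving as negative controls.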

ARRHPYFYAPE [ALB_Y172]
inactive: SHP2 C-SH2 domain E139D 0.242 | [1] 0.188 | SHP2 N-SH2 domain L43F 0.225 | SHP2 N-SH2 domain T42A 0.324 | SHP2 N-SH2 domain T52S 0.302 | [2] 0.371

FRPHLYGTPSR [ADGRE2_Y670_S665F]
inactive: SHP2 C-SH2 domain E139D 2.4 | [1] 1.96 | SHP2 N-SH2 domain L43F 2.66 | SHP2 N-SH2 domain T42A 2 | SHP2 N-SH2 domain T52S 2.42 | [2] 1.93

AIQDAYMHITS [ADCY10_Y318]
inactive: SHP2 C-SH2 domain E139D 0.982 | [1] 0.651 | SHP2 N-SH2 domain L43F 0.856 | SHP2 N-SH2 domain T42A 0.678 | SHP2 N-SH2 domain T52S 0.668 | [2] 0.692

GVTLLYFGRFN [ADGRD1_Y85_YF]
inactive: SHP2 C-SH2 domain E139D 1.88 | [1] 1.81 | SHP2 N-SH2 domain L43F 1.45 | SHP2 N-SH2 domain T42A 1.83 | SHP2 N-SH2 domain T52S 1.97 | [2] 1.7

HKANEYYPVVL [ADAMTS18_Y764]
inactive: SHP2 C-SH2 domain E139D 0.8 | [1] 0.856 | SHP2 N-SH2 domain L43F 0.947 | SHP2 N-SH2 domain T42A 0.631 | SHP2 N-SH2 domain T52S 1.08 | [2] 0.88

KILPEYLSNWT [AIFM1_Y347]
inactive: SHP2 C-SH2 domain E139D 1.02 | [1] 1.05 | SHP2 N-SH2 domain L43F 1.21 | SHP2 N-SH2 domain T42A 0.982 | SHP2 N-SH2 domain T52S 1.29 | [2] 1.25

REAAAYPHGRL [AGXT_Y297_L298P]
inactive: SHP2 C-SH2 domain E139D 0.859 | [1] 0.506 | SHP2 N-SH2 domain L43F 0.498 | SHP2 N-SH2 domain T42A 0.52 | SHP2 N-SH2 domain T52S 0.703 | [2] 0.656

SRPHLYGTPSR [ADGRE2_Y670]
inactive: SHP2 C-SH2 domain E139D 1.24 | [1] 0.986 | SHP2 N-SH2 domain L43F 1.12 | SHP2 N-SH2 domain T42A 1.04 | SHP2 N-SH2 domain T52S 1.42 | [2] 1.32

FKDYFYCWNTS [AICDA_Y146_F151S]
inactive: SHP2 C-SH2 domain E139D 1.47 | [1] 1.9 | SHP2 N-SH2 domain L43F 1.16 | SHP2 N-SH2 domain T42A 1.37 | SHP2 N-SH2 domain T52S 1.41 | [2] 1.86

NRNVRYLTLDI [AKR1C2_Y305]
inactive: SHP2 C-SH2 domain E139D 1.27 | [1] 3.11
active: SHP2 N-SH2 domain L43F 9.87 | SHP2 N-SH2 domain T42A 24.3 | SHP2 N-SH2 domain T52S 12.1 | [2] 4.15

KVKVEYDMTVP [AHNAK_Y964_G962V]
inactive: SHP2 C-SH2 domain E139D 0.81 | [1] 0.795 | SHP2 N-SH2 domain L43F 0.85 | SHP2 N-SH2 domain T42A 0.899 | SHP2 N-SH2 domain T52S 0.8 | [2] 0.843

ELAKYYKLHHI [AK7_Y391_N389K]
inactive: SHP2 C-SH2 domain E139D 1.26 | [1] 1.45 | SHP2 N-SH2 domain L43F 1.14 | SHP2 N-SH2 domain T42A 1.05 | SHP2 N-SH2 domain T52S 1.11 | [2] 1.26

IKRIDYEFVEM [ADA_Y84_A83D]
inactive: SHP2 C-SH2 domain E139D 1.06 | [1] 0.992 | SHP2 N-SH2 domain L43F 0.658 | SHP2 N-SH2 domain T42A 0.791 | SHP2 N-SH2 domain T52S 0.878 | [2] 0.897

ELAKFYKLHHI [AK7_Y391_N389K_YF]
inactive: SHP2 C-SH2 domain E139D 0.649 | [1] 0.559 | SHP2 N-SH2 domain L43F 0.655 | SHP2 N-SH2 domain T42A 0.597 | SHP2 N-SH2 domain T52S 0.743 | [2] 0.658

ELANFYKLHHI [AK7_Y391_YF]
inactive: SHP2 C-SH2 domain E139D 1.09 | [1] 0.753 | SHP2 N-SH2 domain L43F 0.993 | SHP2 N-SH2 domain T42A 1.09 | SHP2 N-SH2 domain T52S 0.969 | [2] 0.905

TLRKTYGEMAD [ALB_Y108_E106K]
inactive: SHP2 C-SH2 domain E139D 0.742 | [1] 0.638 | SHP2 N-SH2 domain L43F 0.696 | SHP2 N-SH2 domain T42A 0.55 | SHP2 N-SH2 domain T52S 0.606 | [2] 0.691

AIDVGYRHIDC [AKR1B1_Y40]
inactive: SHP2 C-SH2 domain E139D 0.882 | [1] 0.894 | SHP2 N-SH2 domain L43F 0.892 | SHP2 N-SH2 domain T42A 0.802 | SHP2 N-SH2 domain T52S 0.694 | [2] 0.9

LHRAHYDLHHT [AHSG_Y314_R317H]
inactive: [1] 2.75 | SHP2 N-SH2 domain L43F 3.07 | SHP2 N-SH2 domain T42A 2.67 | SHP2 N-SH2 domain T52S 2.81 | [2] 2.79
active: SHP2 C-SH2 domain E139D 3.42

LPKEQYLCTKE [AFG3L2_Y614_Y616C]
inactive: SHP2 C-SH2 domain E139D 0.749 | [1] 0.951 | SHP2 N-SH2 domain L43F 0.822 | SHP2 N-SH2 domain T42A 0.793 | SHP2 N-SH2 domain T52S 0.661 | [2] 1.29

FKDFFYCWNTF [AICDA_Y146_YF]
inactive: SHP2 C-SH2 domain E139D 1.35 | [1] 1.38 | SHP2 N-SH2 domain L43F 1.32 | SHP2 N-SH2 domain T42A 1.07 | SHP2 N-SH2 domain T52S 1.21 | [2] 1.39

KASGKYYAMKI [AKT3_Y173]
inactive: SHP2 C-SH2 domain E139D 1.19 | [1] 1.39 | SHP2 N-SH2 domain L43F 1.23 | SHP2 N-SH2 domain T42A 1.54 | SHP2 N-SH2 domain T52S 1.27 | [2] 1.73

TEALFYTDDTA [ADPRS_Y75_YF]
inactive: SHP2 C-SH2 domain E139D 0.759 | [1] 0.765 | SHP2 N-SH2 domain L43F 0.702 | SHP2 N-SH2 domain T42A 0.729 | SHP2 N-SH2 domain T52S 0.843 | [2] 0.951

ARRHPYFFAPE [ALB_Y172_Y174F]
inactive: SHP2 C-SH2 domain E139D 0.28 | [1] 0.264 | SHP2 N-SH2 domain L43F 0.286 | SHP2 N-SH2 domain T42A 0.279 | SHP2 N-SH2 domain T52S 0.244 | [2] 0.184

AVAFLYYKSIG [ADGRL4_Y301_V300L]
inactive: SHP2 C-SH2 domain E139D 1.01 | [1] 1.39 | SHP2 N-SH2 domain L43F 1.15 | SHP2 N-SH2 domain T42A 0.961 | SHP2 N-SH2 domain T52S 1.09 | [2] 1.3

LSSVSYVGCSL [ADGRD1_Y571_I569V]
inactive: SHP2 C-SH2 domain E139D 0.684 | [1] 0.624 | SHP2 N-SH2 domain L43F 0.616 | SHP2 N-SH2 domain T42A 1.37 | SHP2 N-SH2 domain T52S 0.576 | [2] 0.572

IKRIAYEFVEM [ADA_Y84]
inactive: SHP2 C-SH2 domain E139D 0.721 | [1] 0.598 | SHP2 N-SH2 domain L43F 0.697 | SHP2 N-SH2 domain T42A 0.777 | SHP2 N-SH2 domain T52S 0.657 | [2] 0.741

HSLRDYKEALM [ADA2_Y337_H335R]
inactive: SHP2 C-SH2 domain E139D 1.1 | [1] 1.04 | SHP2 N-SH2 domain L43F 1.1 | SHP2 N-SH2 domain T42A 0.795 | SHP2 N-SH2 domain T52S 0.807 | [2] 1.05

AVAFVYYKSIG [ADGRL4_Y301]
inactive: SHP2 C-SH2 domain E139D 1.86 | [1] 1.57 | SHP2 N-SH2 domain L43F 1.63 | SHP2 N-SH2 domain T42A 1.42 | SHP2 N-SH2 domain T52S 1.77 | [2] 1.3

EESSHCSTEKE [ADAR_Y587_Y587C]
inactive: SHP2 C-SH2 domain E139D 0.364 | [1] 0.393 | SHP2 N-SH2 domain L43F 0.378 | SHP2 N-SH2 domain T42A 0.475 | SHP2 N-SH2 domain T52S 0.458 | [2] 0.317

GRTPLYMDRQG [AGXT_Y194_G190R]
inactive: SHP2 C-SH2 domain E139D 0.789 | [1] 1.02 | SHP2 N-SH2 domain L43F 0.792 | SHP2 N-SH2 domain T42A 0.702 | SHP2 N-SH2 domain T52S 0.744 | [2] 0.65

LKLIQYHLTQQ [AKAP4_Y554]
active: SHP2 N-SH2 domain L43F 4.47 | SHP2 N-SH2 domain T52S 5.54
inactive: SHP2 C-SH2 domain E139D 2.2 | [1] 2.05 | SHP2 N-SH2 domain T42A 2.62 | [2] 2.3

ASRKYYAMKIL [AKT3_Y174_G171R]
inactive: SHP2 C-SH2 domain E139D 1.79 | [1] 1.28 | SHP2 N-SH2 domain L43F 1.58 | SHP2 N-SH2 domain T42A 1.23 | SHP2 N-SH2 domain T52S 1.28 | [2] 1.38

AMCVRYDGVEV [ADAMTSL2_Y594]
inactive: SHP2 C-SH2 domain E139D 0.799 | [1] 0.87 | SHP2 N-SH2 domain L43F 0.923 | SHP2 N-SH2 domain T42A 0.736 | SHP2 N-SH2 domain T52S 0.943 | [2] 1.21

WCSNDHLGMSR [ALAS2_Y199_Y199H]
inactive: SHP2 C-SH2 domain E139D 0.988 | [1] 0.979 | SHP2 N-SH2 domain L43F 0.854 | SHP2 N-SH2 domain T42A 0.811 | SHP2 N-SH2 domain T52S 0.903 | [2] 0.876

VECHLYFTQPK [AKR1D1_Y199_P198L]
inactive: SHP2 C-SH2 domain E139D 1.09 | [1] 1.26 | SHP2 N-SH2 domain L43F 0.96 | SHP2 N-SH2 domain T42A 0.615 | SHP2 N-SH2 domain T52S 0.817 | [2] 1.64

KANEFYPVVLI [ADAMTS18_Y765_YF]
inactive: SHP2 C-SH2 domain E139D 0.463 | [1] 0.551 | SHP2 N-SH2 domain L43F 0.6 | SHP2 N-SH2 domain T42A 0.597 | SHP2 N-SH2 domain T52S 0.473 | [2] 0.629

ETDPRYFDEEF [AKT1_Y437_T435P]
inactive: SHP2 C-SH2 domain E139D 0.574 | [1] 0.542 | SHP2 N-SH2 domain L43F 0.724 | SHP2 N-SH2 domain T42A 0.589 | SHP2 N-SH2 domain T52S 0.609 | [2] 0.638

From the supplement of paper PMC10369915
